Laboratory results taken from the supplement of paper PMC8285479.
Counter-ions that a name gives are not always drawn. ± gives the standard deviation of the averaged measurements. Whole data set: some 1,900 compounds, median “normalised cell viability (NPI; 0 = phenylarsine oxide control, 1 = DMSO control)” near 1, cut for the lowest 2% near 0.039. The list shows a part of the results.

System: NCI-H1944
Assay: normalised cell viability (NPI; 0 = phenylarsine oxide control, 1 = DMSO control) (fraction of DMSO control); NCI-H1944 is a non-small cell lung cancer line; higher = more viable cells (less compound toxicity)
Conditions: 6 days
[1] = glucocorticoid arm: hydrocortisone 2.75 uM co-treatment, compound 1 µM
[2] = glucocorticoid arm: hydrocortisone 2.75 uM co-treatment, compound 5 µM
[3] = glucocorticoid arm: hydrocortisone 2.75 uM pre-treated 2 days and continued, compound 1 µM
[4] = glucocorticoid arm: hydrocortisone 2.75 uM pre-treated 2 days and continued, compound 5 µM
[5] = glucocorticoid arm: vehicle, compound 1 µM
[6] = glucocorticoid arm: vehicle, compound 5 µM
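Note: CTB read-out in 384-well plates, mean of triplicate wells, normalised per plate against 1 µM phenylarsine oxide and 0.1% DMSO, compounds added 24 h after seeding.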

Row | Structure (SMILES) | normalised cell viability [1] | normalised cell viability [2] | normalised cell viability [3] | normalised cell viability [4] | normalised cell viability [5] | normalised cell viability [6]
1 | Cc1cccc(C)c1NC(=O)C(C)N (centres undefined) [Tocainide hydrochloride] | 0.987 ± 0.015 | 0.944 ± 0.017 | 0.99 ± 0.01 | 0.954 ± 0.026 | 0.972 ± 0.0027 | 0.9643 ± 0.0071
2 | NC(N)=NC(N)=Nc1cccc(Cl)c1 [1-(m-Chlorophenyl)-biguanide hydrochloride] | 0.9883 ± 0.0095 | 0.968 ± 0.02 | 0.996 ± 0.013 | 0.954 ± 0.011 | 0.97 ± 0.0046 | 0.9693 ± 0.006
3 | Cc1cc(O)c2c(c1)C(=O)c1cccc(O)c1C2=O [Chrysophanic Acid] | 1.005 ± 0.0087 | 1.03 ± 0.01 | 1.027 ± 0.0058 | 1.02 ± 0.01 | 0.997 ± 0.011 | 1.013 ± 0.0058
4 | COc1cc2c(N3CCN(C(=O)Nc4ccc(OC(C)C)cc4)CC3)ncnc2cc1OCCCN1CCCCC1 [Tandutinib (MLN518)] | 1.004 ± 0.0098 | 1.06 ± 0.01 | 1.01 ± 0.011 | 1.04 ± 0.017 | 0.996 ± 0.0069 | 0.9893 ± 0.0095
5 | Cc1cccc(C)c1OCC(C)N (centres undefined) [Mexiletine hydrochloride] | 1.01 ± 0.01 | 1.01 ± 0.032 | 1.013 ± 0.0058 | 1.05 ± 0.073 | 0.998 ± 0.002 | 1 ± 0.013
6 | COc1ccccc1N1CCN(CCCCN2C(=O)c3ccccc3C2=O)CC1 [NAN-190 hydrobromide] | 1 ± 0.011 | 0.9863 ± 0.0092 | 0.999 ± 0.011 | 1 ± 0.019 | 1.007 ± 0.0058 | 1.02 ± 0.017
7 | CN1[C@@H]2CC[C@H]1C[C@@H](OC(=O)c1c[nH]c3ccccc13)C2 [Tropisetron] | 1.02 ± 0.017 | 0.982 ± 0.02 | 1.03 ± 0.01 | 0.985 ± 0.033 | 1.003 ± 0.0061 | 0.9937 ± 0.0065
8 | NC[C@@H]1O[C@H](O[C@H]2[C@@H](O)[C@H](O[C@@H]3[C@@H](O)[C@H](N)C[C@H](N)[C@H]3O[C@H]3O[C@H](CO)[C@@H](O)[C@H](O)[C@H]3N)O[C@@H]2CO)[C@H](N)[C@@H](O)[C@@H]1O [Paromomycin sulfate] | 0.988 ± 0.0076 | 1.01 ± 0.014 | 1.01 ± 0.023 | 0.9793 ± 0.0067 | 0.9853 ± 0.0065 | 0.9797 ± 0.0059
9 | Nc1nc(CC(=O)Nc2ccc(CCNC[C@H](O)c3ccccc3)cc2)cs1 [Mirabegron] | 1.03 ± 0.01 | 1 ± 0.035 | 1.04 ± 0.015 | 1.01 ± 0.015 | 1.017 ± 0.0058 | 1.002 ± 0.0068
10 | CCOc1cc2ncc(C#N)c(Nc3ccc(F)c(Cl)c3)c2cc1NC(=O)/C=C/CN(C)C [Pelitinib (EKB-569)] | 0.588 ± 0.026 | 0.479 ± 0.028 | 0.619 ± 0.016 | 0.525 ± 0.015 | 0.535 ± 0.056 | 0.366 ± 0.041
11 | CCCc1c(-c2ccc(O)cc2)nn(-c2ccc(O)cc2)c1-c1ccc(O)cc1 [1,3,5-tris(4-hydroxyphenyl)-4-propyl-1H-pyrazole] | 1.02 | 1.01 ± 0.012 | 1 ± 0.014 | 1.05 ± 0.015 | 0.9913 ± 0.0055 | 1.01
12 | NC(=O)c1ccc2[nH]ccc2c1 | 0.9987 ± 0.0015 | 0.987 ± 0.01 | 0.992 ± 0.019 | 0.986 ± 0.011 | 0.9897 ± 0.0057 | 0.9927 ± 0.0042
13 | COc1ccc(/C=C/C(=O)Nc2ccccc2C(=O)O)cc1OC [Tranilast] | 1.006 ± 0.0075 | 0.998 ± 0.021 | 1.01 ± 0.03 | 1.01 ± 0.011 | 1.017 ± 0.0058 | 1.01 ± 0.011
14 | CCN(CC)CCNC(=O)c1c(C)[nH]c(/C=C2\C(=O)Nc3ccc(F)cc32)c1C [Sunitinib; Sunitinib Malate; Sunitinib (free base)] | 0.9273 ± 0.0085 | 0.586 ± 0.011 | 0.9643 ± 0.0045 | 0.76 ± 0.033 | 0.999 ± 0.01 | 0.703 ± 0.0078
15 | CCN(CC)CCNC(=O)c1c(C)[nH]c(/C=C2\C(=O)Nc3ccc(F)cc32)c1C [Sunitinib Malate (Sutent)] | 0.99 ± 0.0089 | 0.8647 ± 0.0067 | 1.003 ± 0.0058 | 0.928 ± 0.012 | 0.9927 ± 0.0059 | 0.9927 ± 0.0031
16 | CCN(CC)CCOC(=O)c1cc(Cl)c(N)cc1OC [SDZ-205,557 hydrochloride] | 0.993 ± 0.0061 | 1 ± 0.017 | 1.02 ± 0.023 | 0.993 ± 0.022 | 1.002 ± 0.0076 | 0.9977 ± 0.0021
17 | NC/C=C/C(=O)O [(E)-4-amino-2-butenoic acid] | 0.965 ± 0.014 | 0.9853 ± 0.0025 | 0.999 ± 0.019 | 0.981 ± 0.011 | 0.9743 ± 0.0067 | 0.9727 ± 0.0081
18 | CC(=O)N[C@@H](Cc1c[nH]c2ccccc12)C(=O)OCc1cc(C(F)(F)F)cc(C(F)(F)F)c1 | 0.99 ± 0.01 | 0.996 ± 0.013 | 0.989 ± 0.011 | 0.9775 ± 0.0064 | 0.97 ± 0.011 | 0.9747 ± 0.005
19 | Cn1cnc2c1c(=O)[nH]c(=O)n2C [Theobromine] | 1.027 ± 0.0058 | 1.02 ± 0.021 | 1.02 ± 0.021 | 1.01 ± 0.015 | 1.007 ± 0.0058 | 1.013 ± 0.0058
20 | N#C/C(=C\c1c[nH]c2ccccc12)C(=O)c1ccc(O)c(O)c1 [Tyrphostin AG 808] | 1.013 ± 0.0058 | 1.05 ± 0.021 | 0.872 ± 0.25 | 1.023 ± 0.0058 | 1.005 ± 0.0092 | 1.005 ± 0.0081
21 | CCN(CC)CCNC(=O)c1cc(Cl)c(N)cc1OC [MetoclopraMide HCl] | 1.037 ± 0.0058 | 1.03 ± 0.025 | 1.017 ± 0.0058 | 1.017 ± 0.0058 | 1.007 ± 0.0058 | 1.013 ± 0.0058
22 | CCN(CC)CCNC(=O)c1cc(Cl)c(N)cc1OC [Metoclopramide hydrochloride] | 1.003 ± 0.0058 | 0.996 ± 0.021 | 1.01 ± 0.015 | 1.02 ± 0.081 | 1.003 ± 0.0058 | 1.01
23 | NCCCNCCCCNCCCN [Spermine tetrahydrochloride] | 0.998 ± 0.0017 | 0.996 ± 0.021 | 0.879 ± 0.21 | 0.98 ± 0.014 | 1.006 ± 0.0075 | 0.486 ± 0.46
24 | CN(C)C/C=C(/c1ccc(Br)cc1)c1cccnc1 [Zimelidine dihydrochloride] | 1.01 ± 0.011 | 0.992 ± 0.016 | 1 ± 0.022 | 1.02 ± 0.022 | 1.017 ± 0.0058 | 1.01 ± 0.015
